The whole screen tested about 310,000 compounds, of which about 11,000 (3.5%) were called active. This list was built around the results that the source calls inconclusive (neither active nor inactive); the mix of calls is not that of the screen. Calls follow the shape of the dose curve; as a rule, active = well fitted inhibition curve with a large enough effect; inconclusive = small, poorly fitted or top-dose-only effect, or effect the other way; inactive = flat fitted curve, though single readings scatter. No potency is given beside an inconclusive call; the fits are too rough.
test: VP16 counterscreen qHTS for inhibitors of ROR gamma transcriptional activity; settings: Drosophila S2 Gal4-VP16 UAS-luciferase, luminescence, 20 h; series mostly up to 53.6 µM;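 also: Gal4-VP16 expression switched on by copper sulfate through the metallothionein promoter; nearly all actives have a fitted effect of over 50% in size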
Potency is read from the fitted curve at half-maximal effect; tags tell the direction and shape of the fitted curve.

| Compound | Potency |
| --- | --- |
| Cc1ccc(-c2nc3c(c(SCC(=O)N4CCOCC4)n2)Cc2c(CO)cnc(C)c2O3)cc1 | inactive |
| COc1ccccc1C1CC(=O)Nc2cc3c(cc21)OCCO3 (stereo not drawn) | active: 11.2 µM |
| CCN1C(=O)/C(=C2/Sc3ccc(OC)cc3N2C)SC1=Nc1cccc(O)c1 | inconclusive [inhibitor, single point] |
| COc1ccc([N+](=O)[O-])cc1NC(=O)CCN1CCN(c2ccccc2OC)CC1 | inconclusive [activator, single point] |
| O=C(CNC(=O)C(c1ccccc1)c1ccccc1)N/N=C/c1ccc(O)cc1O | inactive |
| Clc1ccc(-c2csc(NNC3=NCCCCC3)n2)cc1 | inconclusive [inhibitor, single point] |
| Cc1c(/C=N/NC(=O)COc2ccccc2[N+](=O)[O-])c2ccccc2n1C | inactive |
| CC(/C=C/c1ccc2c(c1)OCO2)=N/NC(=O)C1COc2ccccc2O1 (stereo not drawn) | inconclusive [inhibitor, single point] |
| Cc1c(OC(C)C(=O)NCc2cccnc2)ccc2c3c(c(=O)oc12)CCCC3 (stereo not drawn) | inactive |
| COc1ccc(NC(=O)C2CCCN(S(=O)(=O)c3ccc4c(c3)CCCN4C(C)=O)C2)cc1Cl (stereo not drawn) | inconclusive [inhibitor, single point] |
| COc1cc(O)c2c(=O)c(O)c(-c3ccc(O)c(O)c3)oc2c1 | inconclusive [inhibitor, single point] |
| CCOc1ccc(/C=N/NC(=O)c2[nH]c3ccc(C)cc3c2C)cc1 | inconclusive [inhibitor, single point] |
| COc1ccc(NC(=O)C2CCN(c3nc(C)nc4c3CCC4)CC2)cc1 | inconclusive [inhibitor, single point] |
| COc1cc2c(cc1OC)C(NC(=O)c1ccc(C)cc1)CC2=O (stereo not drawn) | inactive |
| C#CCOCCOCCOCCNc1nc(N2CCN(C(=O)[C@H](Cc3cc4ccccc4[nH]3)n3cc([C@@H](N)CC(C)C)nn3)CC2)nc(N2CCN(C(=O)[C@H](Cc3cc4ccccc4[nH]3)n3cc([C@@H](N)CC(C)C)nn3)CC2)n1 | active: 15.8 µM |
| Cc1ccc(S(=O)(=O)N(C(=O)c2ccncc2)c2ccc(OC(=O)c3ccncc3)c3ccccc23)c(C)c1 | inconclusive [inhibitor, single point] |
| Cc1ccc(C#N)c(SCc2ccccc2F)n1 | inactive |
| O=C(COC(=O)c1cc(=O)c2ccccc2o1)Nc1ccc2ccccc2c1 | inactive |
| CCc1nc(N2CCN(C(=S)NCCCOC)CC2)c2c3c(sc2n1)CCCC3 | inconclusive [inhibitor, single point] |
| CC(=O)c1cccc(NC(=O)c2cccc(S(=O)(=O)N3CCOCC3)c2)c1 | inactive |
| Cn1c(SCc2ccc(Br)cc2)nc2ccccc2c1=O | inconclusive [inhibitor, single point] |
| COc1ccc(NC(=O)Cc2c(C)n(C(=O)c3ccc(Cl)cc3)c3ccc(OC)cc23)cc1 | inactive |
| CCOC(=O)c1cc(NC(=O)N(C)C2CCCCC2)c(C)nc1C | inactive |
| CCCC(C(=O)NC(C)(C)C)N(CC1CCCO1)C(=O)CNS(=O)(=O)c1ccc(F)cc1 (stereo not drawn) | inactive |
| O=C(/C=C/c1cccs1)NC(=S)NNC(=O)Cc1cccs1 | inconclusive [inhibitor, single point] |

| Compound | Potency |
| --- | --- |
| COc1cccc(C(=O)N(Cc2ccc3c(c2)OCO3)Cc2nc3ccccc3c(=O)[nH]2)c1 | inconclusive [inhibitor, single point] |
| CCCCCC1(C)NC(=S)N(c2ccccc2)N1 (stereo not drawn) | inconclusive [inhibitor, single point] |
| CCN(CC)c1ccc(/C=C/c2nc3ccccc3s2)cc1 | active: 7.08 µM |
| c1csc(-c2nc(CN3CCSCC3)cs2)c1 | inconclusive [inhibitor, partial curve] |
| Cc1ccc(-c2cc3ccccc3nc2N)cc1 | inconclusive [inhibitor, single point] |
| O=C(Cn1ccc(C(F)(F)F)n1)Nc1ccc(S(=O)(=O)NCc2ccco2)cc1 | inactive |
| O=C(c1ccccc1)c1cc(Cl)ccc1N1C(=O)C=CC1=O | active: 15.8 µM |
| Cc1ccc(C)c(S(=O)(=O)C(C#N)c2nc3ccccc3nc2N2CC(C)OC(C)C2)c1 (stereo not drawn) | inconclusive [inhibitor, single point] |
| CC(=O)N/N=C(\N)c1nonc1N | inactive |
| O=C(COc1cccc(Br)c1)NN=C1c2ccccc2-c2ccccc21 | inconclusive [inhibitor, single point] |
| CC(C)c1ccc(C2=C(O)c3ccccc3C(=O)C2=O)cc1 | inconclusive [inhibitor, single point] |
| Cc1nc2ccc(F)cc2cc1C(=O)Nc1ccc(Cl)c(Cl)c1 | inconclusive [activator, single point] |
| COc1ccc(N2CSC3=C(C#N)C(c4cc(OC)ccc4OC)CC(=O)N3C2)c(OC)c1 (stereo not drawn) | inconclusive [inhibitor, single point] |
| COc1cc(/C=N/n2c(-c3ccc4c(c3)NC(=O)CO4)csc2=Nc2cccc(C)c2)ccc1O | inconclusive [inhibitor, single point] |
| CCOC(=O)c1c(C)oc2c1c1c(c3ccccc32)OCN(Cc2cccnc2)C1 | active: 7.94 µM |
| CCN1CCN(C(=O)/C(=C/c2ccco2)NC(=O)c2ccccc2)CC1 | inactive |
| O=C1NC(c2ccccn2)Nc2sc3c(c21)CCC3 (stereo not drawn) | inconclusive [inhibitor, single point] |
| COc1ccccc1C(=O)Nc1nnc(SCC(=O)Nc2ccc3c(c2)oc2ccccc23)s1 | inconclusive [inhibitor, partial curve] |
| COc1cccc(NC(=S)NCc2ccccc2)c1 | active: 8.91 µM |
| COc1cccc(CNCC(O)(c2ccc(Cl)cc2)c2ccc(Cl)cc2)c1 | inconclusive [inhibitor, single point] |
| COc1cc(/C=C2\S/C(=N/S(=O)(=O)c3ccccc3)NC2=O)c([N+](=O)[O-])cc1OC | inactive |
| CCN(CC)S(=O)(=O)c1cc(OC)ccc1N=Nc1ccc(O)c2ncccc12 | active: 1.26 µM |
| COc1ccc(C(=O)c2sc(Nc3cccc(OC)c3)c(C(=O)Nc3cccc(C)c3C)c2N)cc1 | inactive |
| Cc1oc(-c2ccccc2)nc1Cn1cccc1C1=NC(c2ccccc2)CO1 (stereo not drawn) | inconclusive [inhibitor, single point] |
| COc1ccc(CNC(=O)C2CCCN(c3ncnc4c3nc3n4CCCCC3)C2)cc1 (stereo not drawn) | inactive |

| Compound | Potency |
| --- | --- |
| CCOC(=O)C(Sc1nnc2c3ccccc3n(CC)c2n1)C(=O)OCC | inconclusive [inhibitor, single point] |
| c1ccc(-c2csc(Nc3ccccn3)n2)cc1 | inconclusive [inhibitor, single point] |
| CCN(c1ccccc1)S(=O)(=O)c1ccc2c(c1)CC(C)N2C(=O)C1CC1 (stereo not drawn) | inconclusive [inhibitor, single point] |
| COc1cc(SC)ccc1C(=O)Nc1ccc(C)cc1 | active: 20 µM |
| CCCNC(=O)CCC(=O)Nc1ncc(-c2ccc(C)cc2)n1C | active: 5.62 µM |
| O=C1CSC(=S)N1/N=C/c1ccc2c(c1)OCCO2 | inactive |
| C=CCN(CC=C)S(=O)(=O)c1ccc(NC(=S)NC(=O)/C=C/c2cccc3ccccc23)cc1 | inconclusive [inhibitor, single point] |
| [O-][n+]1ccccc1SSc1cccc[n+]1[O-] | active: 0.891 µM |
| CN(C)S(=O)(=O)c1cccc(NC(=O)c2cccc(NS(=O)(=O)c3ccccc3)c2)c1 | inconclusive [inhibitor, single point] |
| CCN(CC)c1nc(-c2ccccc2)nc2ccccc12 | inactive |
| Cc1cnc(CNc2ncnc3ccc(-c4ccccc4C(F)(F)F)cc23)cn1 | inconclusive [inhibitor, single point] |
| CC1c2ccccc2SC(CCCN(C)C)c2ccccc21 (stereo not drawn) | inconclusive [inhibitor, partial curve, poor fit] |
| COc1ccc(C(=O)NNC2=C(C(=O)C(F)(F)F)CCC2)cc1 | inconclusive [inhibitor, single point] |
| O=C(CSc1nnc(-c2cccnc2)s1)Nc1ccnc2ccccc12 | inconclusive [inhibitor, single point] |
| O=C(O)c1ccccc1-c1c2cc(Br)c(=O)c(Br)c-2oc2c(Br)c(O)c(Br)cc12 | inconclusive [inhibitor, single point] |
| S=C(NCc1ccccn1)Nc1cccc(Cl)c1 | active: 12.6 µM |
| N=C1C(c2ccccc2)=C(O)CN1c1ccc2c(c1)OCO2 | inactive |
| Cc1cc(C2C(C#N)=C(N)Oc3n[nH]c(C)c32)c(C)s1 (stereo not drawn) | active: 11.2 µM |
| COC(=O)N/N=C\c1ccc(-c2cc(Cl)c(Cl)cc2Cl)o1 | inconclusive [inhibitor, single point] |
| CCCSc1nsc(NC(=O)Nc2ccc(F)cc2F)n1 | inconclusive [inhibitor, single point] |
| Oc1cccc2ccc(/C=C/c3ccccc3Cl)nc12 | active: 4.47 µM |
| Cc1ccccc1N=CC1=C(O)c2ccccc2C1=O | active: 1.26 µM |
| O=C(CNC(=O)c1ccccc1)N=Nc1c(O)[nH]c2ccc(Br)cc12 | inconclusive [inhibitor, single point] |

Reference: PubChem BioAssay AID2546 (National Center for Advancing Translational Sciences (NCATS), 2010)
